Seven compounds from ChEMBL document CHEMBL1961873, “Compounds: GSK PKIS; Assays: Nanosyn kinase panel” (2012) can be followed below.

Experiment [1] has as its target CDK3/Cyclin E (Homo sapiens) (UniProt P24864+Q00526). Conditions: at 1 µM.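 Note: each figure is a mean percent inhibition of the CDK3/cyclin E complex.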
The target of experiment [2] is Cyclin-dependent kinase 4 (Homo sapiens) (UniProt P11802). To be noted: at 0.1 µM.
The target is the same in experiment [3]. Conditions: at 1 µM.
The target of experiment [4] is Cyclin-dependent kinase 5 (Homo sapiens) (UniProt Q00535). Conditions: at 0.1 µM.
For experiment [5] the target is unchanged. To be noted: at 1 µM.
Experiment [6] has as its target Cyclin-dependent kinase 6 (Homo sapiens) (UniProt Q00534). To be noted: at 0.1 µM.
Experiment [7] shares this target. To be noted: at 1 µM.
The target in experiment [8] is Dual specificity protein kinase CLK2 (Homo sapiens) (UniProt P49760). To be noted: at 0.1 µM.
The target is the same in experiment [9]. To be noted: at 1 µM.
Experiment [10] concerns the target Dual specificity protein kinase CLK3 (Homo sapiens) (UniProt P49761). To be noted: at 0.1 µM.
The target is the same in experiment [11]. Conditions: at 1 µM.
Experiment [12] addresses Dual specificity tyrosine-phosphorylation-regulated kinase 1A (Homo sapiens) (UniProt Q13627). To be noted: at 0.1 µM.
The target is the same in experiment [13]. Conditions: at 1 µM.
In experiment [14] the target is Dual specificity tyrosine-phosphorylation-regulated kinase 1B (Homo sapiens) (UniProt Q9Y463). To be noted: at 0.1 µM.
Experiment [15] has the same target. Conditions: at 1 µM.
Experiment [16] addresses T1, Dual specificity tyrosine-phosphorylation-regulated kinase 2 (Homo sapiens) (UniProt Q92630).
T1 sequence (whole entry): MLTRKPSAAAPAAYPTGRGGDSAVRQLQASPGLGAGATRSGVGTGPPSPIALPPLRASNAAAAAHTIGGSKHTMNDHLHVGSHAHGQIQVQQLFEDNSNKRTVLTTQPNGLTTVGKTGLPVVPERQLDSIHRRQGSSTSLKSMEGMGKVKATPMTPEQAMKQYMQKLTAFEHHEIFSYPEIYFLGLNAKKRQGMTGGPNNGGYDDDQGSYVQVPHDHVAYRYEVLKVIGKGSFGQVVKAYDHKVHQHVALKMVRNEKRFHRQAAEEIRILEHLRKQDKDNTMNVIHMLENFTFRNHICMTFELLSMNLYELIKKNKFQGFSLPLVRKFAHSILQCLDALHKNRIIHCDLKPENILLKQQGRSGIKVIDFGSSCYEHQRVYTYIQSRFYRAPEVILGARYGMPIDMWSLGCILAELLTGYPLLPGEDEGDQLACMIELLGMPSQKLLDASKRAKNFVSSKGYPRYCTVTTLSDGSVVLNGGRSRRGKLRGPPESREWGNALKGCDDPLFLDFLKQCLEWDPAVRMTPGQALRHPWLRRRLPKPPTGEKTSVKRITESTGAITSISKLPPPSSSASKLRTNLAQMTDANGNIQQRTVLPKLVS
Conditions: at 0.1 µM.

For experiment [17], the target named is T1, Dual specificity tyrosine-phosphorylation-regulated kinase 2 (Homo sapiens). Conditions: at 1 µM.
The target of experiment [18] is Glycogen synthase kinase-3 alpha (Homo sapiens) (UniProt P49840). To be noted: at 0.1 µM.
Experiment [19] shares this target. To be noted: at 1 µM.
The target in experiment [20] is Glycogen synthase kinase-3 beta (Homo sapiens) (UniProt P49841). To be noted: at 0.1 µM.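 Note: values are mean percent inhibition of GSK3B activity, from the GSK Published Kinase Inhibitor Set (PKIS) screening dataset.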

For some assays here: Shown are results outside the selection of strong results, which stands elsewhere. Only a part is listed here, and it is no random draw.

The term inhibition denotes the drop in the measured response relative to a control, in per cent. In the case of `Fc1ccc(-c2ncn(C3CCNCC3)c2-c2ccnc(Oc3cccc(C(F)(F)F)c3)n2)cc1`, the inhibition in [1] was -2.05%; in experiment [2], 2.74%; in [3], 5.2%; in experiment [4], 0.19%; in experiment [5] it was 0.86%; in experiment [6] it was 2.48%. The inhibition in experiment [7] is -1.01%; in [8], 1.24%; in [9], 0.21%; in experiment [10] it was 0.94%; in [11], 1.46%; in experiment [12], 2.5%. The inhibition in experiment [13] is 4.13%; in experiment [14] it was -0.62%; in experiment [15] it was -0.35%; in experiment [16], 4.43%; in [17], 2.66%; in experiment [18], 4.18%. In addition, the inhibition turned out to be 3.44% in experiment [19] and 2.57% in [20].
For `COc1ccccc1C1=C(Nc2ccccc2)C(=O)NC1=O`, the inhibition was 29.5% in experiment [1]; 6.73% in [2]; 29.4% in [3]; 3.17% in [4]; 20.2% in experiment [5]; 4.76% in experiment [6]. Also, the inhibition in experiment [7] came out at 20.8%; in [8], 7.88%; in [9] it was 49.2%; in experiment [10], 2.3%; in [11] it was 8.2%; in [12], 2.95%. Also, the inhibition in experiment [13] stood at 23.5%; in experiment [14], 4.01%; in experiment [15] it was 22%; in experiment [16], 2.64%; in experiment [17], 3.03%; in experiment [18], 26.8%. Also, in [19], the inhibition was determined as 69.2%.
Regarding `NC(=O)CCc1ccccc1Oc1nccc(-c2c(-c3ccc(F)cc3)ncn2C2CCNCC2)n1`, the inhibition in experiment [1] is -0.48%; in [2] it was 0.06%; in experiment [3], 0.88%; in experiment [4], 0.01%; in [5], 0.72%; in experiment [6], -0.95%. Besides, the inhibition in experiment [7] was 0.07%; in [8] it was -0.81%; in [9], -1.21%; in experiment [10], 0.18%; in experiment [11], 0.49%; in experiment [12], 0.97%. Further, the inhibition in experiment [13] is 1.86%; in [14], 1.93%; in experiment [15] it was 1.76%; in [16], -0.57%; in [17] it was -1.39%; in experiment [18] it was 1.92%. In addition, the inhibition stood at 0.57% in experiment [19] and 0.1% in [20].
`Fc1ccc(-c2ncn(C3CCNCC3)c2-c2ccnc(Oc3ccc(Cl)cc3)n2)cc1`: the inhibition in [1] was -0.59%; in [2], -0.8%; in [3], 1.37%; in experiment [4], 0.23%; in [6] it was -2.97%; in experiment [7], -2.58%. The inhibition is 0.13% in experiment [8]; 0.74% in experiment [9]; 0.05% in experiment [11]; 1.12% in [12]; 1.2% in [13]; 0.04% in [14]. Also, the inhibition was 0.73% in experiment [15]; -0.08% in experiment [16]; 0.96% in [17]; 0.79% in experiment [18]; 2.27% in experiment [19]; 1.01% in experiment [20].
Regarding `Cc1cccc(Oc2nccc(-c3c(-c4ccc(F)cc4)ncn3C3CCNCC3)n2)c1C`, the inhibition in [1] is -1.44%; in experiment [2] it was 3.16%; in [3], 5.15%; in [4] it was 2.05%; in experiment [5] it was 3.49%; in experiment [6], -2.52%. The inhibition in experiment [7] is -1.71%; in [8] it was -0.68%; in [9] it was -0.35%; in experiment [10] it was 1.88%; in [11], 0.94%; in experiment [12], 3.48%. The inhibition in experiment [13] is 3.76%; in [14] it was -1.24%; in [15] it was 0.42%; in experiment [16], 2.91%; in [17] it was 1.81%; in experiment [18], 4.56%. The figures for the inhibition in experiment [19] and in experiment [20] were 4.51% and 2.52%, respectively.
In the case of `CS(=O)(=O)c1ccc(Oc2nccc(-c3c(-c4ccc(F)cc4)ncn3C3CCNCC3)n2)cc1`, the inhibition in [1] is -5.23%; in experiment [2], 1.4%; in [3] it was 3%; in experiment [4], -0.5%; in experiment [5], -0.46%; in experiment [6], 0.71%. For the same compound, the inhibition was -0.9% in [7]; 0.95% in [8]; -0.63% in [9]; 0.25% in [10]; 0.22% in experiment [11]; 2.01% in [12]. Besides, the inhibition in experiment [13] was 3.13%; in [14], -3.03%; in experiment [15], -2.34%; in experiment [16] it was 1.98%; in [17], 2.49%; in experiment [18], 1.47%. Also, the inhibition is 3.81% in experiment [19] and 0.64% in experiment [20].
Take `Fc1ccc(Oc2nccc(-c3c(-c4ccc(F)cc4)ncn3C3CCNCC3)n2)cc1`: the inhibition in experiment [1] is -1.09%; in experiment [2], -0.04%; in experiment [3], -0.17%; in experiment [4] it was -2.5%; in [5], -1.74%; in [6], -5.32%. For the same compound, the inhibition is -4.91% in experiment [7]; 1.73% in experiment [8]; 5.31% in [9]; -3.02% in [10]; -2.72% in experiment [11]; -1.7% in experiment [12]. Further, the inhibition in [13] is 0.72%; in [14] it was -3.86%; in [15], -2.43%; in experiment [16], 3.37%; in experiment [17] it was 7.29%; in experiment [18], -1.06%. Besides, the inhibition in experiment [19] was -1.44%; in experiment [20], -1.98%.
